The target in assay [1] is T1, native mouse ThrRS-L (mThrRS-L) (mouse (endogenous in muscle tissue and NIH/3T3)) (UniProt Q8BLY2).
T1 sequence: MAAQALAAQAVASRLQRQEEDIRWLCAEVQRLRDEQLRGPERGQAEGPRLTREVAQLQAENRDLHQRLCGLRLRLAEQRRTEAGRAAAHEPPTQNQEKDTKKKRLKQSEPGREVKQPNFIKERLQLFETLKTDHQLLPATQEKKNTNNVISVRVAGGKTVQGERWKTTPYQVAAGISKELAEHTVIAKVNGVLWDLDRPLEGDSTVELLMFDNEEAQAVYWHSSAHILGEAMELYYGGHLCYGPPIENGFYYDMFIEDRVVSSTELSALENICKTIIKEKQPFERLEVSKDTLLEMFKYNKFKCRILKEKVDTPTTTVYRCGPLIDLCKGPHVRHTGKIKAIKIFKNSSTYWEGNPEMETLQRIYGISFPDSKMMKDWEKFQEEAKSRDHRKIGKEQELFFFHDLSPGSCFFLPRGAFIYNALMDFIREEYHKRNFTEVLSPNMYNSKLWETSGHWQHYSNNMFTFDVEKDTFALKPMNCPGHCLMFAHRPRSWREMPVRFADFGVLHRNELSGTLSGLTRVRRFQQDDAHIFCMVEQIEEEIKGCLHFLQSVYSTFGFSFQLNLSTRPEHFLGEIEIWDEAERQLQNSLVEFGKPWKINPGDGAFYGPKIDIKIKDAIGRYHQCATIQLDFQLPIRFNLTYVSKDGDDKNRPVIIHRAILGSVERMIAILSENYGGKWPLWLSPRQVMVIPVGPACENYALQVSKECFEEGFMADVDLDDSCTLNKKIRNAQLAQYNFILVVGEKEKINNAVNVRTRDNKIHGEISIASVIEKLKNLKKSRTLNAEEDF
Kind of assay: SEC; mouse muscle tissue extract on Superose-6, 50 mM Tris-HCl pH 7.5, 50 mM NaCl, 1 mM PMSF, 1 mM DTT; fractions immunoblotted.

Assay [2] has as its target T2, C-terminal FLAG-tagged human threonyl-tRNA synthetase-like protein (hThrRS-L-FLAG) (human) (UniProt A2RTX5).
T2 sequence: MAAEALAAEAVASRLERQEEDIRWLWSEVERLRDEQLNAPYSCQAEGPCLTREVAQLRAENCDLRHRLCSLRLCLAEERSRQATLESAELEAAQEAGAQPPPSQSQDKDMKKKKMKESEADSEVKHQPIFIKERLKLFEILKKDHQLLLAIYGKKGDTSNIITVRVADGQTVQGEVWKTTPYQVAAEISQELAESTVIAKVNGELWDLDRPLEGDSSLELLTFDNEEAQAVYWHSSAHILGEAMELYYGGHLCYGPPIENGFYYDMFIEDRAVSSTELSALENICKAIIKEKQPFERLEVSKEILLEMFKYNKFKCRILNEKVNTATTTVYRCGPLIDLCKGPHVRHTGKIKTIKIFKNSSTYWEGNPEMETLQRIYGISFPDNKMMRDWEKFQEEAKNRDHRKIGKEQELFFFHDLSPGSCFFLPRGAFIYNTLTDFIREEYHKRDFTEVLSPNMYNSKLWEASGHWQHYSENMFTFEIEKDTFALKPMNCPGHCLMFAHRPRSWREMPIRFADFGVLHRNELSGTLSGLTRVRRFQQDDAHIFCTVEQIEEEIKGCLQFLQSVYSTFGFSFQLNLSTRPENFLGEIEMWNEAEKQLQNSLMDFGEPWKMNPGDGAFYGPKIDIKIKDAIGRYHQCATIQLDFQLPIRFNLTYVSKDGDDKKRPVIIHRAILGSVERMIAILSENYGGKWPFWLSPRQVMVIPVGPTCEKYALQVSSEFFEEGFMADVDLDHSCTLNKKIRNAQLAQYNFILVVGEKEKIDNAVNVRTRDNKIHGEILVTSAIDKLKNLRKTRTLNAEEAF
Kind of assay: co-IP; both proteins overexpressed with different tags in HEK293T; lysis buffer 50 mM Tris-HCl pH 7.5, 150 mM NaCl, 5 mM EDTA, 1% Triton X-100; antibody overnight, Dynabeads protein G, 4°C; western blotting.

In assay [3] the target is N-terminal Myc-tagged human ThrRS (Myc-hThrRS) (human) (UniProt P26639). Described as above.
The target of assay [4] is T3, TLN161-Ha/A, Gal4 DNA binding domain fusion (human) (UniProt A2RTX5).
T3 sequence: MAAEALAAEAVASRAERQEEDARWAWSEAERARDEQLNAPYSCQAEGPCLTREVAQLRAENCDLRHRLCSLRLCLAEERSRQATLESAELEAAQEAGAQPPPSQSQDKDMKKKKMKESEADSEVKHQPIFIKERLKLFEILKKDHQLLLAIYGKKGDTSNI
Kind of assay: two-hybrid; pairwise: pGADT7 construct and pGBKT7 construct together in Y2HGold; growth on QDO/X/A (SD/QDO/X) plates.

Assay [5] concerns the target T4, TLN161-Hb/A, Gal4 DNA binding domain fusion (human) (UniProt A2RTX5).
T4 sequence: T3 sequence with A15L, A22I, A25L, A29V, A32L, L57A, L64A, L68A, L71A, L75A
Described as above.

Assay [6] addresses T5, TLN161(1-74), N-terminal part of TLN161, Gal4 DNA binding domain fusion (human) (UniProt A2RTX5).
T5 sequence: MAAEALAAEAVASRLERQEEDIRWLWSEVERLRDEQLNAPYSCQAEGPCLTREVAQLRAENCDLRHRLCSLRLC
The description is as above.

Assay [7] addresses T6, TLN161-Ha/Hb/A, Gal4 DNA binding domain fusion (human) (UniProt A2RTX5).
T6 sequence: T3 sequence with L57A, L64A, L68A, L71A, L75A
The description is as above.

Assay [8] has as its target T7, TLN161, N-terminal appended domain of hThrRS-L (Met1-Ile161), Gal4 DNA binding domain fusion (human) (UniProt A2RTX5).
T7 sequence: T3 sequence with A15L, A22I, A25L, A29V, A32L
The description is as above.

Assay [9] deals with T8, TLN161(75-161), C-terminal part of TLN161, Gal4 DNA binding domain fusion (human) (UniProt A2RTX5).
T8 sequence: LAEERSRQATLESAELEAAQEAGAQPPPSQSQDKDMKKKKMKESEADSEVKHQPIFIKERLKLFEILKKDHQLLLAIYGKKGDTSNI
The assay is described as above.

Assay [10] has as its target T9, TLN161-M3/A, Gal4 DNA binding domain fusion (human) (UniProt A2RTX5).
T9 sequence: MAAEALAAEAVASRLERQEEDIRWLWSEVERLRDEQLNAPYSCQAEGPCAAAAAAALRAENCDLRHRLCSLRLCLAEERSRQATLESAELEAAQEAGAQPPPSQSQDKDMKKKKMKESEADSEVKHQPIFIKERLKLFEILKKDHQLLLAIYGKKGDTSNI
As to the kind of experiment: two-hybrid; TLN161 linker mutants with p43 and ArgRS; data not shown.

The target in assay [11] is T10, TLN161-M1/A, Gal4 DNA binding domain fusion (human) (UniProt A2RTX5).
T10 sequence: T3 sequence with A15L, A22I, A25L, A29V, A32L, D34A, E35A, Q36A, L37A
The assay is described as above.

Assay [12] concerns the target T11, TLN161-M2/A, Gal4 DNA binding domain fusion (human) (UniProt A2RTX5).
T11 sequence: T3 sequence with A15L, A22I, A25L, A29V, A32L, Q44A, E46A
Described as above.

The target in assay [13] is T7, TLN161, N-terminal appended domain of hThrRS-L (Met1-Ile161), Gal4 DNA binding domain fusion (human). The assay is described as above.

Consider 3 molecules from article PMC6794377.

Numbering of substitutions follows the chain as printed. Results are given in words; binding and its absence hold for the method and conditions named. For some of these results: Binding seen in cells or lysates may run through a third protein. Some results given as binding are weak or reduced against the parent protein; the word gives no strength. For some of these results: Tags and fused reporters may be left off the sequences shown.

B1: mouse ArgRS, endogenous in muscle tissue (enzyme, UniProt Q9D0I9 1-660)
chain: MDGLVAQCSARLLQQEREIKALTAEIDRLKNCGCLEASPSLEQLREENLKLKYRLNILRRSLQEERRKPTKNMININSRLQEVFGCAIRAAYPDLENPPLIVTPSQQPKFGDYQCNSAMGISQMLKAKEQKVSPREIAENITKHLPNNKYIDKVEIAGPGFINVHLRKDFVSEQLTSLLVNGVQLPVLGDKEKVIVDFSSPNIAKEMHVGHLRSTIIGESMSRLFEFAGYDVLRLNHVGDWGTQFGMLIAHLQDKFPDYLTVSPPIGDLQAFYKESKKRFDADEEFKKRAYQCVVLLQSKNPDIMKAWNLICDVSREEFKKIYDALDITLIERGESFYQDRMKDIVKEFEDKGFVQVDDGRKIVFVPGCSVPLTIVKSDGGYTYDTSDLAAIKQRLFEEKANKIIYVVDNGQAIHFQTIFAAAQMIGWYDPKVTLVTHVGFGVVLGEDKKKFKTRSGETVRLMDLLEEGLKRSMDKLKEKERDKVLTEEELKAAQTSVAYGCIKYADLSHNRLNDYIFSFDKMLDDRGNTAAYLLYAFTRIRSIARLANIDEAMLQRAARETKIILDHEKEWKLGRCILRFPEILQKILDDLFLHTLCDYIYELATTFTEFYDSCYCVEKDRQTGKVLKVNMWRMLLCEAVAAVMAKGFDILGIKPVQRM
As to B1, the binding result in assay [1] is “binds”.

B2: N-terminal Myc-tagged human ThrRS (Myc-hThrRS) (enzyme, UniProt P26639 1-723)
chain: MFEEKASSPSGKMGGEEKPIGAGEEKQKEGGKKKNKEGSGDGGRAELNPWPEYIYTRLEMYNILKAEHDSILAEKAEKDSKPIKVTLPDGKQVDAESWKTTPYQIACGISQGLADNTVIAKVNNVVWDLDRPLEEDCTLELLKFEDEEAQAVYWHSSAHIMGEAMERVYGGCLCYGPPIENGFYYDMYLEEGGVSSNDFSSLEALCKKIIKEKQAFERLEVKKETLLAMFKYNKFKCRILNEKVNTPTTTVYRCGPLIDLCRGPHVRHTGKIKALKIHKNSSTYWEGKADMETLQRIYGISFPDPKMLKEWEKFQEEAKNRDHRKIGRDQELYFFHELSPGSCFFLPKGAYIYNALIEFIRSEYRKRGFQEVVTPNIFNSRLWMTSGHWQHYSENMFSFEVEKELFALKPMNCPGHCLMFDHRPRSWRELPLRLADFGVLHRNELSGALTGLTRVRRFQQDDAHIFCAMEQIEDEIKGCLDFLRTVYSVFGFSFKLNLSTRPEKFLGDIEVWDQAEKQLENSLNEFGEKWELNSGDGAFYGPKIDIQIKDAIGRYHQCATIQLDFQLPIRFNLTYVSHDGDDKKRPVIVHRAILGSVERMIAILTENYGGKWPFWLSPRQVMVVPVGPTCDEYAQKVRQQFHDAKFMADIDLDPGCTLNKKIRNAQLAQYNFILVVGEKEKISGTVNIRTRDNKVHGERTISETIERLQQLKEFRSKQAEEEF
As to B2, the binding result in assay [2] and in assay [3] was “binds” throughout.

B3: N-terminal leucine-zipper domain of ArgRS (Met1-Asn72), Gal4 activation domain fusion (domain or fragment, UniProt P54136 1-72)
chain: MDVLVSECSARLLQQEEEIKSLTAEIDRLKNCGCLGASPNLEQLQEENLKLKYRLNILRKSLQAERNKPTKN
For the molecule B3, the binding result is given as “no binding” in [4]; “no binding” in assay [5]; “binds” in assay [6]; “no binding” in assay [7]; “binds” in [8]; “no binding” in [9]. Besides, the binding result in assay [10], in assay [11], in [12] and in assay [13] was “binds” in each case.
